Experimental data taken from PubChem BioAssay AID485344 (National Center for Advancing Translational Sciences (NCATS), 2010).
The whole screen tested about 340,000 compounds, of which about 6,900 (2%) were called active. Rule as the data show it: active = inhibition above about 30%; inactive = below that, where a call was filed. This is a selection; strong and weak results do not stand in their true shares. Where no call is shown, the source filed none.

What follows are molecules tested against D(2) dopamine receptor (Homo sapiens) (UniProt P14416) (assay: HTS Assay for Allosteric Antagonists of the Human D2 Dopamine Receptor: Primary Screen for Antagonists). Conditions: HEK293 TREx D2 cells, calcium flux, dopamine EC80; at 10 µM; stronger effect = higher value.
Procedure, shortened: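 Tetracycline-induced HEK293 T-REx cells expressing D2 force-coupled to calcium signalling were dye-loaded, exposed to compound for 180 s, then challenged with an EC80 of dopamine; calcium flux was followed kinetically for a further 180 s.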
Also: 0% is about no effect.

UniProt P14416, sequence (P14416 whole entry, looked up): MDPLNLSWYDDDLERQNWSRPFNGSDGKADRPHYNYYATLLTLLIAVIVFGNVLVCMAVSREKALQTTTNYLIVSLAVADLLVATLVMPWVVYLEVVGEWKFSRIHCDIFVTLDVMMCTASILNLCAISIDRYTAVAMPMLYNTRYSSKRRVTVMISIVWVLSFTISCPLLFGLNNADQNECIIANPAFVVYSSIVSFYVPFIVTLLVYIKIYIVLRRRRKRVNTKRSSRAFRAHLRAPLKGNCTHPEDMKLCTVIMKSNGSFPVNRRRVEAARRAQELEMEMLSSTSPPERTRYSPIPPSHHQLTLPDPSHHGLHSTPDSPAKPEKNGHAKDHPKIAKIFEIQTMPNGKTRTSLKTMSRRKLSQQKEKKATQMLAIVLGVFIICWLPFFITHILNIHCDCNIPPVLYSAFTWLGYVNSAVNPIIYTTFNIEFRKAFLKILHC

Structure (SMILES)	inhibition
CC1Cc2ccccc2N1C(=O)CN(C)CC(=O)Nc1ccc(F)cc1 (stereo not drawn)	active: 42.5%
Clc1cccc(-n2ncc3c(NCCCc4ccccc4)ncnc32)c1	21.9%
Cc1cc(C)cc(NC(=O)C(Cc2ccccc2)N2Cc3ccccc3C2=O)c1 (stereo not drawn)	3.83%
CCN(CC)c1ccc(NC(=O)Cn2c(C)c3cnn(-c4ccccc4)c(=O)c3c2C)c(C)c1	-2.12%
Cc1cc(Cl)ccc1NC(=O)CCS(=O)(=O)c1cc2c(cc1C)NC(=O)CO2	8.11%
COC(=O)c1c(-c2cccs2)csc1NC(=O)c1cc(OC)cc(OC)c1	-11.5%
COC(=O)c1c(NS(=O)(=O)c2cccs2)sc2c1CCCC2	active: 41.4%
CCc1cccc(C)c1Nc1c(-c2ccc(N(C)C)cc2)nc2ncccn12	-1.03%
Cc1cc(C)c2oc(C(=O)Nc3c(C(=O)c4ccc(F)cc4)oc4ccccc34)cc(=O)c2c1	13.7%
Cc1ccc(C)c(CN2C(=O)c3ccccc3Sc3ccc(C(=O)NCc4ccco4)cc32)c1	2.48%
Cc1cccc(OCc2ccc(-c3nc(C#N)c(N4CCN(c5ccccc5)CC4)o3)o2)c1	-2.73%
CC1CCC(NC(=O)C2(C)Cc3ccccc3C(=O)N2Cc2ccccc2Cl)CC1 (stereo not drawn)	-13.8%
Cc1cc(S(=O)(=O)Nc2cccc(-c3ccc(N4CCOCC4)nn3)c2)c(C)cc1Cl	5.37%
COc1cc(NC(=O)c2nc3cc(C)c(C)cc3n(C)c2=O)cc(OC)c1OC	8.75%
Cc1ccc(CCNC(=O)c2sc3ncccc3c2-n2cccc2)cc1	26%
COc1ccc(N2CCN(S(=O)(=O)c3ccc(-c4cc(C(F)(F)F)on4)s3)CC2)cc1	0.0929%
COc1cccc(NC(=O)CSc2nc(O)c(C/C=C/c3ccccc3)c(=O)[nH]2)c1	-6.22%
CCC(=O)Nc1cc(C(=O)NCc2ccc(C)cc2)ccc1S(=O)(=O)c1ccc(C)cc1	-4.7%
COc1ccc(C(=O)NC2(C(F)(F)F)C(=O)NC(C)=C2C#N)cc1 (stereo not drawn)	-6.18%
Cc1ccc2c(c1)C(c1ccc(F)cc1)N(C(=O)C(C)C)CC(=O)N2 (stereo not drawn)	-18.3%
CCc1cccc(NC(=O)Cn2nc(CC)n3c(cc4cc(C)ccc43)c2=O)c1	-6.46%
O=C(O)C1CCCCC1C(=O)Nc1ccccn1 (stereo not drawn)	active: 40.6%
O=c1oc2ccc3ccccc3c2cc1-c1nnc(Nc2ccccc2)s1	3.35%
COc1ccc(Cl)cc1NC(=O)C(C)n1nnc2sc3c(c2c1=O)CCCC3 (stereo not drawn)	10.7%

Structure (SMILES)	inhibition
Cc1cc(C)cc(N2C(=O)CC(c3ccc(C(F)(F)F)cc3)C3=C2COC3=O)c1 (stereo not drawn)	13.5%
COc1ccc2c(C)c(CC(=O)NCCc3ccccc3)c(=O)oc2c1OC	19.7%
Cc1cccc(NC(=O)CSc2nc(-c3cccs3)cc(C(F)(F)F)c2C#N)c1	-23.6%
COc1ccc(Cn2c(SCC(=O)NCc3ccccc3)nc3ccccc32)cc1	0.135%
CCCCn1c(Oc2cccc(C(=O)OC)c2)nc2c1c(=O)n(C)c(=O)n2C	8.36%
Cc1ccc(C(=O)NCC(=O)OCc2cc(=O)n3nc(C4CCCCC4)sc3n2)cc1	-8.43%
CCOc1ccc(NC(=O)Cn2nnc(C(=O)OC)c2C(=O)OC)cc1	20.1%
CC[C@H](C)[C@H](NC(=O)[C@H](Cc1ccc(O)cc1)NC(=O)[C@@H](N)C(C)C)C(=O)N[C@@H](Cc1cnc[nH]1)C(=O)N1CCC[C@H]1C(=O)N[C@@H](Cc1ccccc1)C(=O)O	active: 33.8%
CCN(CC)c1ccc(NC(=O)c2cc(CN3CCCC3)on2)c(C)c1	-6.83%
CCOc1cc(CNC(=O)c2ccc(NC(=O)c3nsc4ccccc34)cc2)ccc1OC	22.3%
CCOc1ccc(NC(=O)CC2C(=O)N(c3cccc(OC)c3)C(=O)N2C2CCCCC2)cc1 (stereo not drawn)	8.41%
Cn1c(=O)c2ccccc2n2c(CCC(=O)N3CCN(c4cccc(Cl)c4)CC3)nnc12	9.22%
CCNC(=O)CCSc1nnc(-c2ccc(O)cc2)o1	1.41%
CCC(Oc1ccc(F)cc1)C(=O)Nc1cc(-c2ccc(C)cc2)no1 (stereo not drawn)	9.65%
COc1cccc(CNC(=O)Nc2cc(C(=O)NCc3cccc(F)c3)ccc2N2CCCC2)c1	-22.6%
COC(=O)c1cc(NS(=O)(=O)c2ccc3c(c2)OCCO3)ccc1Cl	-0.0067%
CCOc1ccccc1NC(=O)CSc1nc2ccccc2nc1N1CCOCC1	14.7%
Cc1cc(F)ccc1NC(=O)c1csc2c1CCC(C)C2 (stereo not drawn)	11.4%
Cc1ccccc1NC(=O)CSc1c(C(C)C)cnc2c1c(=O)n(C)c(=O)n2C	-22.5%
CCN(CC)S(=O)(=O)c1ccc(NC(=O)Cn2ncc3c([nH]c4ccccc43)c2=O)cc1	8.4%
Cc1[nH]c2ccc(C(=O)N3CCN(c4ccccc4F)CC3)cc2c1C	-0.302%
CC(Oc1ccccc1)C(=O)Nc1ccc(C(=O)OCc2cc(=O)n3nc(C(C)C)sc3n2)cc1 (stereo not drawn)	2.18%
O=C(NCCc1ccc(F)cc1)C(=O)NCC(c1ccco1)S(=O)(=O)c1ccccc1 (stereo not drawn)	-17.4%
CCOc1ccc(/C=C/c2nc(C#N)c(N3CCN(CC)CC3)o2)cc1	-13.9%

Structure (SMILES)	inhibition
CCc1ccc(NC(=O)CSc2nc3nc(C)cc(C)n3n2)cc1	3.18%
COc1ccc(-c2noc(N3CCC(C(=O)Nc4cccc(C)c4C)CC3)n2)cc1	-13.8%
COc1ccc(CCNC(=O)c2ccc3c(c2)CCN3S(=O)(=O)c2ccccc2)cc1	-6.92%
CCOc1cc(CNC(=O)c2cc(-c3ccccc3)n[nH]2)cc(OCC)c1OCC	3.17%
COc1ccc(NC(=O)c2oc3ccc(S(=O)(=O)N4CCOCC4)cc3c2C)c(OC)c1	25.3%
COc1ccc(CCNC(=O)c2cnn(-c3ccc(F)cc3)c2C2CCN(C(=O)OC(C)(C)C)CC2)cc1OC	-2.06%
COc1ccc(N2CCN(C(=O)c3cc4c(=O)n(Cc5cccnc5)ccc4nc3C)CC2)cc1	-8.08%
O=C(CN1C(=O)C2(SCC(=O)N2c2ccc(F)c(F)c2)c2ccccc21)NCCc1ccccc1 (stereo not drawn)	6.84%
CCOc1cc(C(c2c(C)[nH]n(-c3ccccc3)c2=O)c2c(C)[nH]n(-c3ccccc3)c2=O)ccc1O	10.5%
CCc1ccccc1NC(=O)CN(C)S(=O)(=O)c1cccc2nsnc12	-11.3%
CCN(CC)c1ccc(NC(=O)c2c(C)nn(-c3ccc(F)cc3)c2-n2cccc2)c(C)c1	-2.27%
COc1ccc(OC)c(NC(=O)c2c(NCc3cccs3)sc3c2CCCCC3)c1	1.15%
COc1ccc(-c2ccc(NS(=O)(=O)c3ccc(NC(C)=O)cc3)cc2)nn1	6.21%
Fc1ccccc1Nc1c2c(nc3ccccc13)CCC2	9.18%
COc1cccc2cc(C(=O)N3CCN(c4cc(C)ccc4C)CC3)c(=O)oc12	8.48%
Cc1cc(OCC(O)CN2CCN(c3ccccn3)CC2)cc(C)c1Cl (stereo not drawn)	active: 43.2%
Cc1nc(SCC(=O)N2CCN(c3ccccc3)CC2)[nH]c(=O)c1C	1.43%
CCOC(=O)c1scc(-c2ccccc2)c1S(=O)(=O)N1CCN(c2ccc(Cl)cc2)CC1	3.71%
CCN(CC)c1cc(C)c2cc(NC(=O)c3ccc(OC)c(OC)c3)ccc2n1	20.5%
Cc1ccc(NC(=O)c2ccc(NC(=O)N3CCSc4ncccc43)cc2)c(Cl)c1	0.253%
COc1cccc(CN2C(=O)c3ccccc3Sc3ccc(C(=O)NCc4ccccc4)cc32)c1	-11.3%
COc1ccccc1C(=O)Nc1c(C(=O)Nc2cc(Cl)ccc2C)sc2nc(C)cc(C)c12	1.69%
COc1cccc(N2CCN(C(=O)c3cnc4c(-c5ccccc5)c(C)nn4c3C)CC2)c1	11.3%
Cc1ccccc1NC(=O)NCCc1c[nH]c2ccccc12	21.4%

Structure (SMILES)	inhibition
COc1ccc(-c2cc(C)no2)cc1S(=O)(=O)N1CCN(c2cccc(C)c2)C(C)C1 (stereo not drawn)	6.41%
O=C(Nc1ccccc1)c1cnc(N2CCCCC2)c2ccccc12	1.06%
COc1cccc(CN(C(=O)COc2ccc(Cl)c(C)c2)C2CCS(=O)(=O)C2)c1 (stereo not drawn)	-2.76%
OC(CSc1ccccc1Cl)CN1CCN(c2ccccc2F)CC1 (stereo not drawn)	active: 74.3%
Cc1ccc(C2CC(=O)n3nc(-c4ccc(Cl)cc4)nc3S2)cc1 (stereo not drawn)	8.82%
Cc1ccc(Sc2ccc(N3CCC(C(=O)Nc4cc(C)cc(C)c4)CC3)nn2)cc1	8.29%
O=C(Cn1cnc2c(nnn2-c2ccccc2)c1=O)NCc1ccco1	active: 39.9%
Cc1c(Cl)cccc1-n1ncc(C(=O)NCCN2CCN(C)CC2)c1C1CCN(C(=O)OC(C)(C)C)CC1	9.87%
O=C(Cn1c(=O)n(-c2ccccc2)c(=O)c2c3c(sc21)CCC3)c1ccc(F)cc1	2.44%
Cc1ccc(CNC(=O)CCS(=O)(=O)c2cc3c4c(c2)CCN4C(=O)CC3)cc1	4.34%
CCOC(=O)C1(CCOC)CCN(Cc2nc(-c3cccs3)oc2C)CC1	active: 31.4%
CCc1ccc(NC(=O)CSc2nc3c([nH]c4ccccc43)c(=O)n2-c2ccc(C)cc2)cc1	23.3%
O=C(Nc1ccccc1)c1ccc(NCCN2C(=O)CCC2=O)c([N+](=O)[O-])c1	active: 58.6%
Cc1sc2ncnc(N3CCN(CCOc4ccc(Cl)cc4)CC3)c2c1C	active: 35.5%
Cc1c(Cl)cccc1NC(=O)c1oc2ccc(S(=O)(=O)N3CCCCCC3)cc2c1C	-9.48%
CCOC(=O)c1cc2c(=O)n3ccccc3nc2n(Cc2ccco2)c1=NC(=O)c1ccc(C(C)(C)C)cc1	-5.03%
Cc1ccc(C)c(NC(=O)CN(C)C(=O)c2ccc3c(=O)n4c(nc3c2)CCC4)c1	active: 32.7%
O=C(Nc1cccc(F)c1)c1ccc2oc(=O)n(Cc3ccccc3)c2c1	-15.7%
CCOC(=O)c1c(NC(C)=O)c2c3c(sc2n1Cc1c(C)cc(C)cc1C)CCCC3	4.79%
CCOc1ccc(N(CC(=O)NCc2ccc(OC)cc2)S(=O)(=O)c2c(C)[nH]c(=O)[nH]c2=O)cc1	-7.82%
CCN1CCCC1CNC(=O)c1ccc(Sc2ccccc2Cl)c([N+](=O)[O-])c1 (stereo not drawn)	active: 72.2%
